Measurements reported in patent publication US20240392020A1 (JIANGSU HENGRUI PHARMACEUTICALS, published 2024).

Key:
hNGF [1] = target: T1, hNGF (human, UniProt P01138 fragment, limits assumed); assay: ELISA
T1 construct: bought

hNGF [2] = target: T1, hNGF; assay: SPR Biacore T200, antibody captured on Protein A chip
Heavy chain of D3 = target: T2, Heavy chain of D3; assay: co-expression in HEK293E cells, LC-MS for the mispaired molecule
T2 construct: single antibody chain, co-expressed

T1 sequence (P01138 122-241 limits assumed): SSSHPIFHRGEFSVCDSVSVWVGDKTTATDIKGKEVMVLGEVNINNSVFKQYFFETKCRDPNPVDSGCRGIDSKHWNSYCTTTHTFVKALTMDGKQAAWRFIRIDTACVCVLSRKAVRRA

Row | EC50 (hNGF [1]) [nM] | Kd (hNGF [2]) [nM] | koff (hNGF [2]) [s⁻¹] | kon (hNGF [2]) [M⁻¹ s⁻¹] | binding result (Heavy chain of D3) | Binder
1 | 1.42 | 0.0621 | 0.000119 | 1.92e+06 | – | Tmab (antibody, human IgG1, kappa, also called I0) heavy: QVQLQESGPGLVKPSETLSLTCTVSGFSLIGYDLNWIRQPPGKGLEWIGIIWGDGTTDYNSAVKSRVTISKDTSKNQFSLKLSSVTAADTAVYYCARGGYWYATSYYFDYWGQGTLVTVSS[human IgG1 constant region cut from this listing] light: DIQMTQSPSSLSASVGDRVTITCRASQSISNNLNWYQQKPGKAPKLLIYYTSRFHSGVPSRFSGSGSGTDFTFTISSLQPEDIATYYCQQEHTLPYTFGQGTKLEIKRTVAAPSVFIFPPSDEQLKSGTASVVCLLNNFYPREAKVQWKVDNALQSGNSQESVTEQDSKDSTYSLSSTLTLSKADYEKHKVYACEVTHQGLSSPVTKSFNRGEC
2 | – | – | – | – | no binding | Light chain of I0 (other, single antibody chain, co-expressed) light: DIQMTQSPSSLSASVGDRVTITCRASQSISNNLNWYQQKPGKAPKLLIYYTSRFHSGVPSRFSGSGSGTDFTFTISSLQPEDIATYYCQQEHTLPYTFGQGTKLEIKRTVAAPSVFIFPPSDEQLKSGTASVVCLLNNFYPREAKVQWKVDNALQSGNSQESVTEQDSKDSTYSLSSTLTLSKADYEKHKVYACEVTHQGLSSPVTKSFNRGEC
